# According to publication PMC4336329 (PLoS ONE, 2015):
# The campaign covered roughly 310,000 compounds. About 2,200 (0.71%) showed an effect of 50% or more. The effect is printed as a negative number. The list shows a part of the results.
# Target: human ether-à-go-go-related gene (hERG) potassium channel (human, UniProt Q12809)
# Experiment: primary screen, population patch clamp on CHO cells stably expressing hERG
# human ether-à-go-go-related gene (hERG) potassium channel, sequence (Q12809 whole entry, looked up): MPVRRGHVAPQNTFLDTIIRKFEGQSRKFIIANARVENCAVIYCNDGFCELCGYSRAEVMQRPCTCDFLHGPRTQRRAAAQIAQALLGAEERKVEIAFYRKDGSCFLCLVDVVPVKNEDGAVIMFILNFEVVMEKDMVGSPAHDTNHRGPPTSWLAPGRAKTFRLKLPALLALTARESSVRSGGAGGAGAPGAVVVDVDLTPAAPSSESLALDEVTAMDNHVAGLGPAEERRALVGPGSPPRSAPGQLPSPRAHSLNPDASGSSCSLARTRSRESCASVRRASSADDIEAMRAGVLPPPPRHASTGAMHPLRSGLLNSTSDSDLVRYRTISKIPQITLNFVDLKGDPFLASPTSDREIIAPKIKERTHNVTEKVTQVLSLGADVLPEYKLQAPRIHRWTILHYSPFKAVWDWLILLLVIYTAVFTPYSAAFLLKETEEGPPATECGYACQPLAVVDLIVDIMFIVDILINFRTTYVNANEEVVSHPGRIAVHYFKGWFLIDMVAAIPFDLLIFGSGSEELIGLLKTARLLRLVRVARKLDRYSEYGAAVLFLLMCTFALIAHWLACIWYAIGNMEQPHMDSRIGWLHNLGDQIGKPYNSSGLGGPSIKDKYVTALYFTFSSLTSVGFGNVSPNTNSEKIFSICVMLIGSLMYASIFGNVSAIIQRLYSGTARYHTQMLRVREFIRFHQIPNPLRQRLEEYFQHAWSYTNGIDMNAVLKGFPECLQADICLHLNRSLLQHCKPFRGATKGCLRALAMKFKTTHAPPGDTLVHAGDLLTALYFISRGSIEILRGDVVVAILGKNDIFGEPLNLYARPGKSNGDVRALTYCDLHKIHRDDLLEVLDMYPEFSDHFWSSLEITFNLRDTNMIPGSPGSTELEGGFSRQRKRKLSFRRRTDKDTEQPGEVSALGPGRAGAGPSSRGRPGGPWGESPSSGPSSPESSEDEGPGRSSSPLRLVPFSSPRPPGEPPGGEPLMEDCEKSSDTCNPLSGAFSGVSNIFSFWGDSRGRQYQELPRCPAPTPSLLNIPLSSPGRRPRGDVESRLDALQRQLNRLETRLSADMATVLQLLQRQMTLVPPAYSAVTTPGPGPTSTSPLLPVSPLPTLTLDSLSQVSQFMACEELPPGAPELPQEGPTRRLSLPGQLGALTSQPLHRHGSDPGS
row,SMILES,"hERG current change (%, negative = inhibition) at 1uM [%]"
1,Cc1ncc(S(=O)(=O)c2ccc(Cl)cc2)c(-c2ccccc2)n1,7.86
2,CCOc1ccc(-n2c(SCC(=O)O)nc3sc4c(c3c2=O)CCCC4)cc1,11
3,CC1(C)CC(=O)C(C=NCc2ccc3c(c2)OCO3)=C(O)C1,3.16
4,CCCSc1nc2c(cnn2-c2ccc(C)cc2)c(=O)[nH]1,11.5
5,COc1ccc(-c2noc(N3CCC(C(=O)NC(C)c4ccccc4)CC3)n2)cc1 (centres unmarked),-7.07
6,CN(C(=O)COC(=O)c1nc(Cl)ccc1Cl)c1ccccc1,13.3
7,CCOC(=O)c1[nH]c(C)c(C(=O)NCc2cccnc2)c1C,7.42
8,O=c1c(C=Nc2ccc(Oc3ccccc3)cc2)c[nH]n1-c1cccc(Cl)n1,15.5
9,CCOc1ccc(N/C=C/C(=O)c2ccc(C)cc2)c([N+](=O)[O-])c1,9.82
10,Nc1ccc2oc(CCc3ccccc3)nc2c1,2.88
11,CC(C(=O)NC1CCCCCC1)c1ccc([N+](=O)[O-])cc1 (centres unmarked),15.5
12,O=C1/C(=C\c2ccco2)CCC/C1=C\c1ccco1,11.9
13,O=C(CCCn1c(SCC(=O)c2ccc(Cl)cc2)nc2ccccc2c1=O)NCc1ccco1,8.48
14,O=C(NN1C(=O)NC2(CCCCC2)C1=O)c1ccc(Cl)s1,12
15,COC(=O)CP(=O)(c1ccccc1)c1ccccc1,14.7
16,N#Cc1c(NC(=O)C(=O)NCCCN2CCOCC2)sc2c1CCCC2,25
17,CC(C)CCNC(=O)Cn1c(NCCC(C)C)nc2c1c(=O)n(C)c(=O)n2C,2.78
18,CCn1c(CN2CCCCC2)nc2cc(S(=O)(=O)N3CCCCC3)ccc21,7.6
19,CCOc1ccccc1N(C)C(=O)c1ccc2c(=O)n3c(nc2c1)CCCCC3,13.4
20,COc1cccc(NC(=S)N2C3CCCC2CC(NC(=O)C2CC2)C3)c1 (centres unmarked),15.7
21,COCc1cc(C)nc(OCC(=O)N/N=C/c2cc(C)n(-c3c(C)cccc3C)c2C)c1C#N,14.6
22,Cc1c(CN2CCc3c([nH]c4ccccc34)C2CC(C)C)cnn1C (centres unmarked),-4.85

row,SMILES,"hERG current change (%, negative = inhibition) at 1uM [%]"
1,COCCOc1cc(COC)nc(-c2cccc(C)c2)n1,10.3
2,CC(CN1CCN(C)CC1)OC(=O)c1cccc(Cl)c1.Cl (centres unmarked),4.12
3,COc1ccccc1N1CCN(C(=O)C2CCN(C(=O)c3cccc(Cl)c3)CC2)CC1,9.66
4,COc1ccc(N2CCN(S(=O)(=O)CCNC(=O)C3CCCCC3)CC2)cc1,11.9
5,C=CCOc1ccc(/C=C/C(=O)OCC(=O)NCC(=O)Nc2c(C)cc(C)cc2C)cc1,6.11
6,O=C1CN(C(=O)N[C@@H](Cc2ccccc2)C(=O)N[C@H](C(=O)O)c2ccccc2)c2ccccc2N1,23.8
7,O=C(C1CCCN(Cc2nc(-c3cccs3)no2)C1)N1CCOCC1 (centres unmarked),19.7
8,CC(C)CC(=O)Nc1nc2ccc(S(C)(=O)=O)cc2s1,4.38
9,COc1ccc(N2CCN(C(=O)C(=O)c3cn(CC(=O)N4CCCCCC4)c4ccccc34)CC2)cc1,-11.2
10,CCn1c2c(c3cc(C(=O)O)ccc31)CCCC2=O,16.7
11,O=C(COC(=O)CCc1ccc(S(=O)(=O)N2CCOCC2)cc1)NCc1ccccc1,5.89
12,FC(F)(F)c1nnc2c3ccccc3c(Cl)nn12,19.4
13,CC(C)OC(=O)Nc1ccc2c(c1)N(C(=O)N1CCN(C)CC1)c1ccccc1CC2.O=C(O)C(=O)O,0.862
14,OC(CCN1CCOCC1)(c1ccc(Cl)cc1)C1CCCCC1 (centres unmarked),7.61
15,COc1ccc(CC(=O)N(C)CC(=O)Nc2cccc(F)c2)cc1S(=O)(=O)N1CCOCC1,11.3
16,Cc1cc(C)nc(N(C#N)Cc2ccccc2)n1,1.61
17,COc1ccccc1C(=O)NC(=O)COC(=O)c1cccc(OC(F)F)c1,8.76
18,Cc1onc(-c2c(Cl)cccc2Cl)c1C(=O)NCCN1CCOCC1,9.38
19,O=C(N1CCOCC1)N(Cc1ccco1)CC1CCCO1 (centres unmarked),-11.8
20,COc1cccc(CN2CCNC(=O)C2CC(=O)NCc2cn3ccccc3n2)c1OC (centres unmarked),21.8
21,O=C(Cn1nnnc1CN1CCOCC1)N1CCC(c2cccc(Cl)c2)C1 (centres unmarked),4.36
22,O=C(Nc1ccccc1)c1nccn1Cc1ccc(F)cc1,11.3

row,SMILES,"hERG current change (%, negative = inhibition) at 1uM [%]"
1,Cn1c(SCC(=O)NCC2CCCO2)ncc(C(=O)Nc2ccc(Cl)cc2)c1=O (centres unmarked),-7.82
2,CCN1CCN(CCNC(=O)c2ccc3nc(-c4cccc(C)c4)c(-c4cccc(C)c4)nc3c2)CC1,-1.25
3,CC(=O)c1ccc(NC(=O)C(C)OC(=O)c2ccc(NS(=O)(=O)c3ccc(F)c(F)c3)cc2)cc1 (centres unmarked),7.25
4,Nc1nonc1-n1nnc(C(=O)N/N=C/c2c[nH]c3ccccc23)c1-c1ccccc1,11.5
5,Cc1ccc(N(C(=O)CNC(=O)c2cccs2)C(C(=O)NC2CCCC2)c2ccncc2)cc1 (centres unmarked),18.8
6,O=C(CSc1nnc(-c2cccs2)n1C1CC1)NC1CCS(=O)(=O)C1 (centres unmarked),8.58
7,O=C(NCCN1CCOCC1)[C@H](Cc1ccccc1)N1C(=O)c2ccccc2C1=O,5.81
8,O=C(NNC(=O)c1csc(N2CCOCC2)n1)c1cccnc1,10.9
9,CC(=O)N1N=C(c2ccccc2)CC1c1cn(Cc2ccccc2)c2ccccc12 (centres unmarked),3.58
10,Cc1ccc(OCC(=O)Nc2ccc(N3CCN(S(C)(=O)=O)CC3)cc2)c(C)c1,10.6
11,O=C(O)C(=O)O.O=C(c1ccncc1)N1CCN(C2CCC(c3ccccc3)CC2)CC1 (centres unmarked),-10.9
12,COc1ccc(CCNC(=O)C(C)SCc2ccccc2)cc1 (centres unmarked),15.3
13,COc1ccc2nc(COC(=O)c3ccco3)c(C(C)=O)[n+]([O-])c2c1,9.31
14,CCOc1ccc(C(=O)OCC(=O)NCc2ccccc2)cc1OCC,-0.272
15,Cc1ccc(NC(=O)COC(=O)c2ccco2)cc1C,5.2
16,CN(C)c1ncc(C2=C(Cl)C(=O)C(N3CCCC3)=C(Cl)C2=O)s1,0.221
17,O=C(Nc1cccc(F)c1)C1CCN(C(=O)c2ccco2)CC1,-3.66
18,C=CCn1c(CSc2nnc(-c3ccccc3)n2C)n[nH]c1=S,12.4
19,CCOc1ccccc1NC(=O)C1COc2ccccc2O1 (centres unmarked),13.8
20,Cc1cc2n(n1)C(c1sccc1C)Nc1ccccc1-2 (centres unmarked),-11.3
21,CC1CN(C(=O)N(C)C)CCN1C(=O)N(C)C (centres unmarked),14.7
22,N#C/C(=C/c1ccc(CNC(=O)C(=O)Nc2cc(Cl)cc(Cl)c2)o1)C(=O)NCc1cccnc1,6.53

row,SMILES,"hERG current change (%, negative = inhibition) at 1uM [%]"
1,COc1ccc(C)cc1-n1nnnc1SCC(=O)c1cc(C)n(Cc2ccco2)c1C,-0.381
2,Fc1ccc(C2N3CCCN23)cc1 (centres unmarked),11.3
3,COc1ccccc1N1CCN(CCN2C(=O)C3CCCN3C2=O)CC1 (centres unmarked),19.2
4,C=CCN1C(=O)C(O)(CC(=O)c2c(C)n[nH]c2C)c2cc(Br)ccc21 (centres unmarked),15.2
5,O=C(NC(Cc1ccccc1)C(=O)O)/C(=C/c1ccc([N+](=O)[O-])cc1)NC(=O)c1ccccc1Br (centres unmarked),-1.9
6,CCCCC(=O)Nc1ccc(NC(=O)c2ccc(C)c([N+](=O)[O-])c2)cc1OC,12.8
7,O=C(CCc1ccccc1)Nc1nncs1,11.8
8,O=C(N/N=C/c1ccncc1)/C(=C/c1ccccc1)NC(=O)c1ccccc1,12.6
9,Cc1cc(Br)ccc1NC(=O)C1CCN(C(=O)c2ccco2)CC1,11.1
10,COc1cc(C(=O)Nc2cc(C)cc(C)c2)c(-n2cnnn2)cc1OC,10
11,CCOC(=O)Cn1nnc2c(sc3nc4c(c(-c5ccc(Cl)cc5)c32)CCC4)c1=O,9.51
12,Cc1noc(C)c1COC(=O)c1cc(F)c(F)cc1Cl,12.3
13,Cc1[nH]c(=O)[nH]c(=O)c1/C=N/NC(=O)[C@H](C)NC(=O)OC(C)(C)C,-1.09
14,Cc1ccc(C2=NN(CC(=O)O)C(=O)CC2)cc1,-9.99
15,CCN1C(=O)N(S(=O)(=O)C(F)(F)F)[C@@H](c2ccccc2)C(C(=O)OC)=C1C,11.8
16,O=C(NCCOC(=O)c1ccc(C(=O)OCCNC(=O)c2ccccc2)o1)c1ccccc1,12.1
17,O=C(Cn1cc2c(n1)CCCC2)NCc1ccccn1,12
18,CC1CCc2sc3c(c2C1)c1ncnn1c(=O)n3CC(=O)c1ccc(Br)cc1 (centres unmarked),15.7
19,Cc1cc(C(=O)Nc2ccc(Cl)cc2)n(-c2ccccc2)n1,14.6
20,C=CCn1c(SCc2cc([N+](=O)[O-])cc3c2OCOC3)nc2cc(C(=O)O)ccc2c1=O,4.67
